Laboratory results published in article PMC11408250.
No constants are given. Whether binding was seen depends on the method and setting. In cells and extracts the contact can be indirect. Some entries that bind do so weakly or less than the wild type. Where a sequence is shown, tags or fusion partners need not be part of it.

Sequences of proteins named here, by UniProt entry; tags and fusion partners are left off.
UniProt P35222: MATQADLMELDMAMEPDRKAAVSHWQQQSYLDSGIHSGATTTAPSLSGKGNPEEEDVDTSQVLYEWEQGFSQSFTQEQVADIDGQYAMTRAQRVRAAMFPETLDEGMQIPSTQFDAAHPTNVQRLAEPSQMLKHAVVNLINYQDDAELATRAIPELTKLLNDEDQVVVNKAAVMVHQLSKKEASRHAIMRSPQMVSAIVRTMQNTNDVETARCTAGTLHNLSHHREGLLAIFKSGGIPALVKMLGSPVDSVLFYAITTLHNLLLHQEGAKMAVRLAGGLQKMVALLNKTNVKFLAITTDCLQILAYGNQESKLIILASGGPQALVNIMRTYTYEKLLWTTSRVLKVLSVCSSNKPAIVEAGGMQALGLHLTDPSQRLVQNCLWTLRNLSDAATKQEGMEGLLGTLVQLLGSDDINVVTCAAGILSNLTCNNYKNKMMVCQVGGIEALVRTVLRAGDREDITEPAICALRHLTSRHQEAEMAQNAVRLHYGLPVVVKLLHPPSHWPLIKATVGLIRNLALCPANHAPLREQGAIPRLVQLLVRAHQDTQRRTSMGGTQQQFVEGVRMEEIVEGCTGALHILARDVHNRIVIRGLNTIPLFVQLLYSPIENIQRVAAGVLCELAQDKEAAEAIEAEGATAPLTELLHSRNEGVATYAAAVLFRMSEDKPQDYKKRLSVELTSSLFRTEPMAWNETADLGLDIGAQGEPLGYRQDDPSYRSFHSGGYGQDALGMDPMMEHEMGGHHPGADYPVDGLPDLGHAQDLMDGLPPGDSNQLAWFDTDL

Legend:
[1] = biological target: T1, PCDH12 (pCMV-PCDH12-Myc/HA) (UniProt Q9NPG4); experiment: co-IP; HEK293T transfected with epitope tagged CAPZA1, αN-catenin or β-catenin and PCDH10 or PCDH12; IP buffer; anti-c-Myc, anti-HA or anti-FLAG beads overnight at 4 °C; western blot
T1 sequence: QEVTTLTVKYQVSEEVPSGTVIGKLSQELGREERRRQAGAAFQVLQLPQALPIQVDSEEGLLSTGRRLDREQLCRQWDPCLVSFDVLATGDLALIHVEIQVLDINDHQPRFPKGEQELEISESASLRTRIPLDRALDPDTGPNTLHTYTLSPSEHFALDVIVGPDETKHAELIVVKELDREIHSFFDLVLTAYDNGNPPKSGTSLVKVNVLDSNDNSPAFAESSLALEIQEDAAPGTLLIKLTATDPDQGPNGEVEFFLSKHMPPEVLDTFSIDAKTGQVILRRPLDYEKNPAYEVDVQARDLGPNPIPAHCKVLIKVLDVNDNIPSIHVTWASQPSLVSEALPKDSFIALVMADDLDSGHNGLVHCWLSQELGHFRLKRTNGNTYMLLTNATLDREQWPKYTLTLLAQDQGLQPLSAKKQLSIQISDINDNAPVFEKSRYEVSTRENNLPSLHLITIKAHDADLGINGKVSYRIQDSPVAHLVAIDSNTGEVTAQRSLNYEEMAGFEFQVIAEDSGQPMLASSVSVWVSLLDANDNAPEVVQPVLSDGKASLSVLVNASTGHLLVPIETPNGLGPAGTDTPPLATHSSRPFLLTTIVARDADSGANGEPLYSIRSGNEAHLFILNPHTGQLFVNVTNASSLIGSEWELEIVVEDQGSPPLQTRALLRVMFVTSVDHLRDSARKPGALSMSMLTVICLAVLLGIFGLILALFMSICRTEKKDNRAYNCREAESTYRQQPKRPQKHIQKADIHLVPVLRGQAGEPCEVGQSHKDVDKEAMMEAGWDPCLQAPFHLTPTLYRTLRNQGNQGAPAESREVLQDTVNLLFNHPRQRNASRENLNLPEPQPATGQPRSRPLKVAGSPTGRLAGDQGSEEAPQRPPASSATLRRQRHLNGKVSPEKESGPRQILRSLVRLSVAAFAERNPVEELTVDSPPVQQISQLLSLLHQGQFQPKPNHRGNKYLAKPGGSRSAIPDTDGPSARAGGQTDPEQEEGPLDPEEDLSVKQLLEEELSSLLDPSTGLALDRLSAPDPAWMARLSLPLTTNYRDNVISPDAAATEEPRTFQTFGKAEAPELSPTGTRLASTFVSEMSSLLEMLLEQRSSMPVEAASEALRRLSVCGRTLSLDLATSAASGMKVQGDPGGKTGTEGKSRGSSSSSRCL

[2] = biological target: T2, PCDH10 (pCMV-PCDH10-Myc/HA) (UniProt Q9P2E7); experiment: as above
T2 sequence: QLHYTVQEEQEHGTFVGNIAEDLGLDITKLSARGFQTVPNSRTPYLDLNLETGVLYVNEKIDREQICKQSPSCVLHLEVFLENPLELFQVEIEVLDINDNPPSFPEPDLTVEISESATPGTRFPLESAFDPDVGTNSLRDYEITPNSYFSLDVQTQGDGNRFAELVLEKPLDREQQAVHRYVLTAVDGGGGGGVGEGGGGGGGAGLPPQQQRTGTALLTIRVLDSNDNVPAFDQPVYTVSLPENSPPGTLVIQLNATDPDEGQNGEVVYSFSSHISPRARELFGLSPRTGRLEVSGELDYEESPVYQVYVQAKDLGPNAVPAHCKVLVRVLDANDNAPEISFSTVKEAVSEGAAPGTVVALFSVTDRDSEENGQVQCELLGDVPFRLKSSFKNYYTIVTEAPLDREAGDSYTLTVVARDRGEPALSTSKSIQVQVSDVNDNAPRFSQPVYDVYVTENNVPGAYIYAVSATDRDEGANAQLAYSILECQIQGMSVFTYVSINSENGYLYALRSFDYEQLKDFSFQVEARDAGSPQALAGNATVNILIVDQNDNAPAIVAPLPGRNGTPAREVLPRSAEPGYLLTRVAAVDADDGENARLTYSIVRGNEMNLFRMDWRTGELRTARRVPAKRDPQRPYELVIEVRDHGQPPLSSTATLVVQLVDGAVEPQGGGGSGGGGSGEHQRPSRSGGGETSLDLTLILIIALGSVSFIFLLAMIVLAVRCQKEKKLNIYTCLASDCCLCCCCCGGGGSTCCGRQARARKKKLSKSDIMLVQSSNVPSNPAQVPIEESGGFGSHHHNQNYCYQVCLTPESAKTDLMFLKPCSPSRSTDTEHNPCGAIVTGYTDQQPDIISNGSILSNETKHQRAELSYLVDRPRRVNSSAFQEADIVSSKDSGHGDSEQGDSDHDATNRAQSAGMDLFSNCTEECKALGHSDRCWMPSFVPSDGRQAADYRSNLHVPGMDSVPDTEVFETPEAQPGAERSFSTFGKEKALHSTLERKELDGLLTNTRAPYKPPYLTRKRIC

β-catenin-V5 (from UniProt P35222 1-781)
binding [1]: no binding | binding [2]: binds
